Test results as given in PubChem BioAssay AID624296 (National Center for Advancing Translational Sciences (NCATS), 2012).
In all, about 350,000 compounds went through this assay and about 9,900 (2.8%) were called active. The inconclusive results got no clear call from the source; some entries with a clear call stand among them for comparison. Calls come from the whole dose curve; as a rule, active = well fitted activation curve with a large enough effect; inconclusive = small, poorly fitted or top-dose-only effect; inactive = no such curve, though single readings can be large or run the other way. No potency is given beside an inconclusive call; the fits are too rough.

Test: A quantitative high throughput screen for small molecules that induce DNA re-replication in MCF 10a normal breast cells. For activity, positive = re-replication: % of control where 0% means no effect. Note: nearly all actives have a fitted effect of over 50% in size.
Conditions: MCF 10A DNA re-replication, Hoechst nuclear intensity, 48 h; activity, positive = re-replication: at 46.1 µM (top of the series)
Potency is the fitted concentration of half-maximal effect; tags give direction and shape of the fitted curve.

| SMILES | Potency | activity, positive = re-replication |
| --- | --- | --- |
| COc1ccc(NC(=O)/C(C#N)=C/c2ccc(Sc3nncn3C)c([N+](=O)[O-])c2)cc1 | inconclusive [activator, single point] | – |
| CCCc1ccc(C(=O)NNc2ccccc2F)cc1 | inconclusive [activator, single point] | – |
| O=C(O)C(Oc1ccc(Cl)cc1)c1ccc(Cl)cc1 (stereo not drawn) | inactive | – |
| COc1cc(-c2ccc(NC(=O)c3ccc(C)cc3)c(OC)c2)ccc1NC(=O)c1ccc(C)cc1 | active: 1.64 µM | – |
| O=C(c1cccs1)N1CCC(C(=O)N2CCN(Cc3ccc4c(c3)OCO4)CC2)CC1 | inconclusive [activator, partial curve, poor fit] | – |
| CCCc1cc(C(=O)Nc2cccc(Cl)c2)no1 | inactive | – |
| O=C(O)CSCc1nc2ccccc2[nH]1 | inconclusive [activator, full curve, poor fit] | – |
| Cc1ccccc1CN1CCC(Oc2ccc(C(=O)N3CCCC3)cc2)CC1 | inconclusive [activator, partial curve, poor fit] | – |
| C(=C1c2ccccc2-c2ccccc21)c1ccccn1 | inconclusive [activator, single point] | – |
| CC(OC(=O)C1CSC2(C)CCC(=O)N12)C(=O)Nc1ccc(F)cc1 (stereo not drawn) | inactive | – |
| CC(C)(C)c1ccc(S(=O)(=O)N2CCN(CCC#N)CC2)cc1 | inactive | – |
| CNC(=O)c1cccc(NC(=O)C(C)c2ccc3cc(OC)ccc3c2)c1 (stereo not drawn) | inactive | – |
| Cc1cc(N/N=C/c2ccc(Cl)cc2)nc(NCc2ccccc2)n1 | inconclusive [activator, single point] | – |
| COc1ccc(N2CCN(S(=O)(=O)c3c(C)[nH]c(C)c3C(=O)N3CCCC3)CC2)cc1 | inactive | – |
| COC(=O)CNC(=O)Cn1cnc2sc(C)c(S(=O)(=O)N3CCC(C)CC3)c2c1=O | inactive | – |
| Cc1noc(C)c1COc1ccc(C(=O)NCC2CCCO2)cc1 (stereo not drawn) | inconclusive [activator, single point] | – |
| O=C(Nc1cccc2cccnc12)c1ccccc1Br | inconclusive [activator, partial curve, poor fit] | – |
| COc1ccc(O)c(/C=N/NC(=O)c2cc(=O)[nH]c3ccccc23)c1 | inconclusive [activator, partial curve, poor fit] | – |
| COc1ccc(NS(=O)(=O)c2cccc(C(=O)N/N=C/c3c(F)c(F)c(F)c(F)c3F)c2)cc1 | active: 18.4 µM | – |
| O=C(N/N=C/c1cccc2cccnc12)c1ccccc1O | inconclusive [activator, full curve] | – |
| CC(c1ccccc1F)n1cc(C(=O)NCCCn2ccnc2)nn1 (stereo not drawn) | inconclusive [activator, partial curve, poor fit] | – |
| C#CCOCCOCCOCCNc1nc(N2CCN(C(=O)CCCCCCCCCCNC(=O)[C@H](CCCCN)n3cc(CCO)nn3)CC2)nc(N2CCN(C(=O)CCCCCCCCCCNC(=O)[C@H](CCCCN)n3cc(CCO)nn3)CC2)n1 | inconclusive [activator, single point] | – |
| COc1ccc(OC)c(NC(=O)c2ccc(N3C(=O)C4CC=C(C)CC4C3=O)cc2)c1 (stereo not drawn) | inconclusive [activator, partial curve] | – |

| SMILES | Potency | activity, positive = re-replication |
| --- | --- | --- |
| CC1CCN(C(=O)c2ccc(S(=O)(=O)N3CCCCCC3)cc2)CC1 | inconclusive [activator, full curve, poor fit] | – |
| COC(=O)Oc1ccc(/C=N/NC(=O)CSCc2ccccc2Br)cc1OC | inconclusive [activator, partial curve, poor fit] | – |
| c1ccc(CNc2c3c(nc4ncnn24)CCC3)cc1 | inconclusive [activator, partial curve, poor fit] | – |
| Cc1onc(-c2ccccc2)c1-c1nnc(-c2ccccc2C(F)(F)F)o1 | inconclusive [activator, partial curve] | – |
| CC1CCc2nc3ccccc3c(C(=O)OCC(=O)NC3CCS(=O)(=O)C3)c2C1 (stereo not drawn) | inactive | – |
| O=C(CCNC(=O)c1ccccc1)OCC(=O)c1cccc(Cl)c1 | inconclusive [activator, partial curve, poor fit] | – |
| COc1ccc(-c2noc(CCC(=O)Nc3cccnc3)n2)cc1 | inactive | – |
| Cc1ccc(NS(=O)(=O)c2c(C)nc3sccn3c2=O)cc1C | inactive | – |
| Cc1ccc(/C=C/C(=O)N2CCCC(C)C2)cc1 (stereo not drawn) | inconclusive [activator, partial curve, poor fit] | – |
| CC(=O)Nc1ccc(NC(=O)C2CC(=O)N(C(C)C)C2)cc1 (stereo not drawn) | inconclusive [activator, single point] | – |
| C/C(=N\NC(=S)NCc1ccccc1)c1ccc(C)o1 | inconclusive [activator, full curve, poor fit] | – |
| CCN1C(=O)c2cccc3c(N)ccc1c23 | inconclusive [activator, single point] | – |
| O=C(Nc1nc(-c2ccc(Cl)cc2)cs1)NC1CCCCC1 | inconclusive [activator, partial curve, poor fit] | – |
| O=C(CSc1nnc(SCc2cccc3ccccc23)s1)N/N=C/c1c[nH]c2ccccc12 | inactive | – |
| COc1ccc(C[C@H]2CN3C(=NC[C@H]3Cc3ccccc3)N2CCNC(=O)CCC2CCCCC2)cc1 | inconclusive [activator, single point] | – |
| O=S(=O)(Nc1ccc(N=Nc2ccccc2)cc1)c1ccccc1 | inconclusive [activator, single point] | – |
| Cc1ccc2cc(C(c3nnnn3CC3CCCO3)N3CCc4ccccc4C3)c(=O)[nH]c2c1 (stereo not drawn) | inconclusive [activator, partial curve] | – |
| FC(F)(F)c1cnc(NNC(=S)Nc2ccc(Cl)cc2)c(Cl)c1 | active: 14.6 µM | – |
| O=C(CCN1CCOCC1)N1CCCC(Nc2cccc(F)c2)C1 (stereo not drawn) | inactive | – |
| CC/C(=N\NC(=O)CCC(=O)NCc1ccccc1)c1ccc(O)cc1 | inconclusive [activator, full curve, poor fit] | – |
| NC(=O)C1CCN(C(=O)CNC(=O)c2ccc(F)cc2)CC1 | inactive | – |
| Cc1ccc(Nc2nc(OC(C(F)(F)F)C(F)(F)F)nc(N3CCOCC3)n2)cc1 | inconclusive [activator, single point] | – |
| Cc1nn(C)c(C(=O)N/N=C/c2ccc(-c3ccccc3)cc2)c1Cl | inconclusive [activator, single point] | – |

| SMILES | Potency | activity, positive = re-replication |
| --- | --- | --- |
| COc1ccc(OCCN(C)C(=O)c2cccc(S(=O)(=O)N(C)c3ccccc3)c2)cc1 | inconclusive [activator, single point] | – |
| O=S1(=O)CC(O)C(N2CCC(c3ccccc3)CC2)C1 (stereo not drawn) | inconclusive [activator, partial curve, poor fit] | – |
| CCOC(=O)c1oc2ccc(/C=N/O)c(Cl)c2c1C | inconclusive [activator, partial curve, poor fit] | – |
| O=C(N/N=C/c1ccc([N+](=O)[O-])cc1)c1cccc(N2CCCC2=O)c1 | inconclusive [activator, partial curve, poor fit] | – |
| Cc1cc(OCC(=O)NCc2ccccn2)c2c(C)cc(=O)oc2c1 | inactive | – |
| CCOC(=O)c1ccc(NC(=O)CSc2ccc(-c3ccncc3)nn2)cc1 | inconclusive [activator, single point] | – |
| O=C(OCN1C(=O)c2ccccc2C1=O)c1cccnc1SC(F)F | inactive | – |
| COC(C(=O)Nc1ccnn1C1CCN(Cc2ccc(CO)o2)CC1)c1ccccc1 (stereo not drawn) | inactive | – |
| Cc1nc(N2CCN(c3ccccn3)CC2)c2c(C)c(C(=O)N3CCN(c4cccc(Cl)c4)CC3)sc2n1 | inconclusive [activator, full curve, poor fit] | – |
| COc1ccc(-c2cc(C)no2)cc1S(=O)(=O)N1CCCCC1 | inactive | – |
| COc1cc(Cl)c(C)cc1NC(=O)c1ccccc1NC(=O)CN1CCN(c2ccccn2)CC1 | inconclusive [activator, single point] | – |
| CC(=O)COc1nc2c(c(-c3ccco3)c1C#N)CCc1ccccc1-2 | inconclusive [activator, full curve] | – |
| Fc1ccccc1CSc1ncnc2sc3c(c12)CCCC3 | inconclusive [activator, single point] | – |
| COc1ccc(S(=O)(=O)c2cnc3ccc(OC)cc3c2N2CCC3(CC2)OCCO3)cc1 | inactive | – |
| O=C1C(Cc2ccc(F)cc2)SC(=Nc2ccccc2)N1c1ccccc1 (stereo not drawn) | inactive | – |
| COc1ccccc1C(C)NC(=O)c1ccc(C)o1 (stereo not drawn) | inconclusive [activator, single point] | – |
| CC(C)c1ccc(-c2cc(C(=O)N3N=C(C(F)F)CC3(O)C(F)F)c3ccccc3n2)cc1 (stereo not drawn) | active: 4.47 µM | – |
| O=C(C1CCC1)N1CCN(S(=O)(=O)c2ccccc2)CC1 | inconclusive [activator, full curve, poor fit] | – |
| Cn1c(SCCCC(=O)c2ccc(Br)cc2)nnc1-c1ccncc1 | – | inactive: -184% [at 0.0737 µM] |
| O=C(C(=O)N1CCN(c2ccccc2Cl)CC1)c1c[nH]c2ccccc12 | inconclusive [activator, partial curve, poor fit] | – |
| C=CCSc1nc(-c2ccc(OC)cc2)c(C#N)c(=O)n1CC=C | active: 20.6 µM | – |
| Cc1c(Cc2ccccc2)c(=O)oc2cc(OCC(=O)N3CCC(C(=O)O)CC3)ccc12 | inconclusive [activator, full curve, poor fit] | – |
